The labels stand for the following.
B1: Caulobacter ParB omega fusion; a variant is named by its letters at X, in order, B8GW30 (parent)
chain: MESVVVGEPGMSEGRRGLGRGLSALLGEVDAAPAQAPGEQLGGSREAPIEILQRNPDQPRRTFREEDLEDLSNSIREKGVLQPILVRPSPDTAGEYQIVAGERAWRAAQRAGLKTVPIMVRELDDLAVLEIGIIENVQRADLNVLEEALSYKVLMEKFERTQENIAQTIGKSXSHVANXMRLLXLPDEVQSYLVSGELTAXHARAIAAAADPVALAKQIIEGGLSVRETEALARKAPNLSAGKSKGGRPPRVKDTDTQALESDLSSVLGLDVSIDHRGSTGTLTITYATLEQLDDLCNRLTRGI

The results in this text go back to a collection of fitness landscapes (doi:10.1016/j.celrep.2020.107928).

In all, about 81,000 sequences were measured (“one-hybrid fitness for binding NBS DNA”: median about -0.1, highest 2% from about 0.36 on). The list shows a part of the results.

Variants of B1 are the subject of the test. As to the kind of experiment: one-hybrid fitness for binding NBS DNA (the Noc-binding site; scaled: cognate 1, non-cognate 0); higher = stronger binding. Conditions: with NBS DNA site. The method in brief:
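Fitness here means the log change in variant-to-wild-type read ratio between plasmids sequenced before and after selection. That scale was set so cognate equals 1 and non-cognate equals 0. The selection was a bacterial one-hybrid screen of Caulobacter ParB libraries, four specificity codons randomised, in E. coli USO carrying a HIS3 reporter with the site 19 bp from the promoter, grown 48 hours at 37°C on M9-minus-histidine with 0.1 mM IPTG and 5 mM 3-AT.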
For the variant TQLK, the “one-hybrid fitness for binding NBS DNA” value was no more than 0.2. The value for DDPC was no more than 0.2. Then PETG, with no more than 0.2. Take CARM: the “one-hybrid fitness for binding NBS DNA” value was no more than 0.2. The value for RGTY was no more than 0.2; that for RKRT was 0.676; that for HGEV was no more than 0.2. The value for FRVC was no more than 0.2; that for TDRQ was no more than 0.2; that for WTPS was no more than 0.2. Then DLDM, with no more than 0.2; and RPLW, with no more than 0.2; and ERSM, with no more than 0.2. For the variant QSHD, the “one-hybrid fitness for binding NBS DNA” value is no more than 0.2. Regarding MWAY, the “one-hybrid fitness for binding NBS DNA” value was no more than 0.2. Then RWLV, with no more than 0.2; and YKYS, with no more than 0.2; and KEGY, with no more than 0.2.

Take RSSW: the “one-hybrid fitness for binding NBS DNA” value was no more than 0.2. Then PSLD, with no more than 0.2; and TTAH, with no more than 0.2; and QELD, with no more than 0.2. The value for TTFD was no more than 0.2. The value for YNTM was no more than 0.2; that for SGSF was no more than 0.2.

Turning to LAEL, the “one-hybrid fitness for binding NBS DNA” value was no more than 0.2. Then PMLG, with no more than 0.2; and LHVS, with no more than 0.2.

Consider ATVH, for which the “one-hybrid fitness for binding NBS DNA” value is no more than 0.2. On to RAGW, for which the “one-hybrid fitness for binding NBS DNA” value was no more than 0.2. The value for LQHC was no more than 0.2; that for QQHM was no more than 0.2; that for RFPL was no more than 0.2. Turning to WIDC, the “one-hybrid fitness for binding NBS DNA” value was no more than 0.2. The value for QQDY was no more than 0.2; that for PRET was no more than 0.2.

Turning to QCKT, the “one-hybrid fitness for binding NBS DNA” value stood at 0.778. Turning to LPCG, the “one-hybrid fitness for binding NBS DNA” value is no more than 0.2. As for QKDW, the “one-hybrid fitness for binding NBS DNA” value was no more than 0.2.

As to WAWT, the “one-hybrid fitness for binding NBS DNA” value was no more than 0.2. Take GSKV: the “one-hybrid fitness for binding NBS DNA” value was no more than 0.2. For the variant TCQT, the “one-hybrid fitness for binding NBS DNA” value is no more than 0.2.

In the case of AQKD, the “one-hybrid fitness for binding NBS DNA” value was no more than 0.2. As for PNRV, the “one-hybrid fitness for binding NBS DNA” value is no more than 0.2.

As for VHGR, the “one-hybrid fitness for binding NBS DNA” value is no more than 0.2.

On to KFVG, for which the “one-hybrid fitness for binding NBS DNA” value is no more than 0.2.

For QWTC, the “one-hybrid fitness for binding NBS DNA” value was no more than 0.2. Then TDET, with no more than 0.2. On to NCDR, for which the “one-hybrid fitness for binding NBS DNA” value is no more than 0.2. The value for AGLK was no more than 0.2. The value for QLET was no more than 0.2.

Turning to KCHV, the “one-hybrid fitness for binding NBS DNA” value was no more than 0.2. ACYM: the “one-hybrid fitness for binding NBS DNA” value was no more than 0.2. The value for WDLS was no more than 0.2; that for RCYN was no more than 0.2; that for MRNG was no more than 0.2. Then HICG, with no more than 0.2; and IVHG, with no more than 0.2. In the case of CCAT, the “one-hybrid fitness for binding NBS DNA” value is no more than 0.2. For the variant EHFR, the “one-hybrid fitness for binding NBS DNA” value was no more than 0.2. Consider GLLI, for which the “one-hybrid fitness for binding NBS DNA” value is no more than 0.2. Regarding AQNR, the “one-hybrid fitness for binding NBS DNA” value was no more than 0.2. VVYP: the “one-hybrid fitness for binding NBS DNA” value was no more than 0.2.

Turning to YCDS, the “one-hybrid fitness for binding NBS DNA” value is no more than 0.2.

In the case of DDHR, the “one-hybrid fitness for binding NBS DNA” value was no more than 0.2.

Turning to EELT, the “one-hybrid fitness for binding NBS DNA” value was no more than 0.2.

As for VDYR, the “one-hybrid fitness for binding NBS DNA” value is no more than 0.2. VMNN: the “one-hybrid fitness for binding NBS DNA” value was no more than 0.2. Then TSAM, with no more than 0.2; and DYAI, with no more than 0.2. On to RPPS, for which the “one-hybrid fitness for binding NBS DNA” value was no more than 0.2. As for RQAF, the “one-hybrid fitness for binding NBS DNA” value was no more than 0.2.

Consider PMTA, for which the “one-hybrid fitness for binding NBS DNA” value was no more than 0.2. The value for AYTN was no more than 0.2.

On to QKGC, for which the “one-hybrid fitness for binding NBS DNA” value is no more than 0.2. Turning to ANAQ, the “one-hybrid fitness for binding NBS DNA” value is no more than 0.2. As for MDSG, the “one-hybrid fitness for binding NBS DNA” value is no more than 0.2.
